± gives the standard deviation of the averaged measurements. The full ranking holds about 33,000 sequences; the median of “E-score (dimensionless, -0.5 to 0.5)” is about -0.049, and the highest 2% start at about 0.37. The list shows a part of the results.
Each sequence was assayed on T1, PmTbr T-box DNA-binding domain (GST fusion) (assay: PBM E-score of 8-mer (E-score (dimensionless, -0.5 to 0.5)); Tbr is Tbrain of the sea star Patiria miniata (Pm) or the sea urchin Strongylocentrotus purpuratus (Sp); higher = stronger binding preference; most listed sequences are background and not binding sites). Settings: the construct has about 5 more residues each side.
T1 sequence: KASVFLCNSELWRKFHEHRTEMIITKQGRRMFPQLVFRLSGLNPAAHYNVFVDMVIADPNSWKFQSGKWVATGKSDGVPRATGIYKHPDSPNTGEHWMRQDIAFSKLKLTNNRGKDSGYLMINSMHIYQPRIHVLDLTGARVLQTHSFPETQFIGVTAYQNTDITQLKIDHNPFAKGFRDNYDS
Procedure, shortened: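 Each ungapped 8-mer received an enrichment E-score from the Universal PBM Analysis Suite, averaged over duplicate arrays. The proteins were Tbr T-box DNA-binding domains, covering the whole T-box plus about five flanking residues, fused to GST and expressed in BL21 E. coli at 20 °C before glutathione affinity purification. Universal Agilent oligonucleotide arrays were made double-stranded by primer extension and incubated with 200 nM protein in PBS (pH 7.5). The arrays were then scanned and quantified, and every 8-mer was scored from probe intensities.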

Row | Sequence | PBM E-score of 8-mer
1 | GCAGGTAA | -0.0867 ± 0.05
2 | ATACCCAA | -0.234 ± 0.019
3 | CCGTCGAC | 0.12732 ± 3.5e-05
4 | GCTGATAC | -0.0685 ± 0.018
5 | CCCCAGGA | -0.0535 ± 0.052
6 | AATGACCG | -0.0548 ± 0.032
7 | ACCGGTGG | -0.072 ± 0.082
8 | CCACAGAC | -0.14 ± 0.13
9 | GGACTCAC | -0.241 ± 0.066
10 | GAGGTCAC | 0.232 ± 0.0028
11 | CGACCCCC | -0.174 ± 0.039
12 | ATGAACCG | 0.0251 ± 0.004
13 | ACGAAAGC | -0.0266 ± 0.078
14 | AATCGTCG | -0.0199 ± 0.039
15 | ACCTTAAG | 0.106 ± 0.014
16 | CCCCGAAA | -0.169 ± 0.017
17 | TAATCACA | 0.202 ± 0.026
18 | CATAAGAG | -0.275 ± 0.024
19 | AGAAGCTC | -0.0644 ± 0.03
20 | AACGGTGG | -0.11 ± 0.045
21 | GGAGTGCC | 0.0345 ± 0.12
22 | AGAGAGGG | -0.123 ± 0.025
23 | CATGCAGC | -0.0211 ± 0.03
24 | AAAGCTGC | 0.171 ± 0.018
25 | ATGCCTCG | -0.00755 ± 0.087

Row | Sequence | PBM E-score of 8-mer
26 | ACCGGGCA | -0.272 ± 0.0037
27 | GTCAATCA | -0.0721 ± 0.032
28 | AAATGTCT | -0.055 ± 0.14
29 | AATGAGCC | -0.162 ± 0.056
30 | ATCTTCCC | -0.114 ± 0.04
31 | CCAAGATC | -0.0545 ± 0.034
32 | AACCGATG | -0.0661 ± 0.043
33 | GCCCGACA | 0.24 ± 0.041
34 | ACGATGAC | 0.0176 ± 0.038
35 | CGCGTCCG | 0.108 ± 0.0082
36 | ACTGCACG | -0.149 ± 0.031
37 | CGCTCGTC | -0.284 ± 0.084
38 | GATGATTA | 0.123 ± 0.025
39 | ACGTTTCC | 0.0226 ± 0.0023
40 | CGTCCGCA | 0.0822 ± 0.046
41 | CGCTCCAA | 0.0514 ± 0.082
42 | CGGAGTTA | -0.101 ± 0.024
43 | GTTCTAAA | -0.324 ± 0.077
44 | TCGAGGAA | -0.167 ± 0.011
45 | CCCCGAGA | -0.141 ± 0.013
46 | GCCTACAA | 0.0283 ± 0.07
47 | AACACTTG | 0.408 ± 0.0044
48 | CACACTTA | 0.4445 ± 0.0038
49 | GAGGAGTA | 0.178 ± 0.028
50 | GCAACGTA | -0.126 ± 0.06

Row | Sequence | PBM E-score of 8-mer
51 | AGTGGCTG | -0.029 ± 0.025
52 | AGGCCTGA | -0.268 ± 0.039
53 | CGATCCAA | 4.5e-05 ± 0.057
54 | ATCGAATG | -0.135 ± 0.0086
55 | CTATGTAA | -0.111 ± 0.035
56 | AGCACTAT | 0.161 ± 0.018
57 | CTAAAAGA | -0.169 ± 0.033
58 | ACAACATC | 0.142 ± 0.021
59 | TATATTGA | -0.0295 ± 0.026
60 | ATCCGATC | -0.18 ± 0.031
61 | GCTTATCA | 0.0322 ± 0.011
62 | AATAACGC | 0.1137 ± 0.00097
63 | GGTGAACC | -0.0178 ± 0.006
64 | CTCGTGGC | -0.0288 ± 0.011
65 | CCCCGATA | -0.0781 ± 0.02
66 | AGTCTATC | -0.0746 ± 0.075
67 | CCCTTAAG | -0.00471 ± 0.02
68 | AACGGCCT | -0.156 ± 0.042
69 | CCTAAGTA | -0.102 ± 0.017
70 | AGTTAGAA | -0.109 ± 0.059
71 | CCGGTGTA | 0.0868 ± 0.027
72 | ACTCGTAC | -0.0781 ± 0.05
73 | GGCTAACA | 0.179 ± 0.019
74 | CCAACTGG | -0.0956 ± 0.052
75 | ATTAACTA | -0.0228 ± 0.0034

Row | Sequence | PBM E-score of 8-mer
76 | ATACCGAC | 0.0515 ± 0.0048
77 | ATTAATGG | -0.0771 ± 0.017
78 | ATATACCA | -0.0136 ± 0.064
79 | GCTGAGTA | -0.166 ± 0.026
80 | TAGGTGGA | 0.242 ± 0.057
81 | CCATATAG | -0.37 ± 0.054
82 | GGATCATA | -0.188 ± 0.072
83 | AAATATAC | -0.257 ± 0.003
84 | AACTAGTT | 0.101 ± 0.067
85 | GTTCTCCA | -0.253 ± 0.017
86 | CGACCAAA | -0.223 ± 0.0098
87 | CGTATGGA | -0.16 ± 0.033
88 | CAGACGAC | -0.0531 ± 0.0077
89 | ACGTTAGA | -0.0684 ± 0.046
90 | CAAACGCC | -0.0331 ± 0.066
91 | AAGTCACA | 0.235 ± 0.036
92 | GGTTCCCA | -0.183 ± 0.01
93 | GGAATGAC | -0.107 ± 0.007
94 | CGCCGTTA | -0.0338 ± 0.013
95 | GTCACGAC | 0.155 ± 0.035
96 | ATAACCAC | -0.171 ± 0.055
97 | CCCAACAG | -0.0404 ± 0.015
98 | ATTGGAGC | -0.104 ± 0.081
99 | AAATCAGT | -0.119 ± 0.037
100 | ATGTCTAA | -0.0964 ± 0.062

Row | Sequence | PBM E-score of 8-mer
101 | AGTGATAC | 0.227 ± 0.05
102 | GAACAGGA | -0.101 ± 0.0082
103 | CCTCCACA | 0.233 ± 0.021
104 | CAAGTTGC | 0.302 ± 0.016
105 | GTGCCTTA | -0.133 ± 0.015
106 | AGTACCTC | -0.0546 ± 0.076
107 | GTTTAACA | 0.26 ± 0.034
108 | GGCTTCCC | -0.112 ± 0.017
109 | AGGTCGAT | 0.028 ± 0.019
110 | GATACGAC | 0.185 ± 0.076
111 | ACTCTTAG | -0.0903 ± 0.065
112 | GATCTCCA | -0.0926 ± 0.045
113 | GAACCAAC | 0.0193 ± 0.17
114 | ATCCGCCA | -0.129 ± 0.013
115 | GATATCGA | 0.0463 ± 0.052
116 | ACGTTCAT | -0.137 ± 0.018
117 | GACACCCA | 0.388 ± 0.032
118 | GGGCCAGA | -0.346 ± 0.022
119 | AAGAATCT | -0.162 ± 0.052
120 | AAACCGTC | -0.061 ± 0.017
121 | ACGTAAAC | -0.00515 ± 0.00069
122 | TACTTCGA | -0.0351 ± 0.02
123 | AATGCTAT | -0.0672 ± 0.063
124 | GGGCTAGA | -0.158 ± 0.019
125 | ACTCCTCC | 0.0678 ± 0.078

Row | Sequence | PBM E-score of 8-mer
126 | AGGCATGA | -0.257 ± 0.074
127 | TCGAAAAA | 0.0243 ± 0.028
128 | AAGCCTCA | -0.0667 ± 0.04
129 | TCTCCTAA | -0.0987 ± 0.12
130 | AACAGCGC | 0.0979 ± 0.039
131 | GGTTCCAA | -0.241 ± 0.027
132 | ACAACTAG | -0.0136 ± 0.00076
133 | CAAATGCC | -0.0299 ± 0.045
134 | CCGAGCGA | -0.248 ± 0.075
135 | GGGATAAC | 0.0683 ± 0.057
136 | AATAGGCT | -0.164 ± 0.087
137 | AAGACCCG | 0.00743 ± 0.084
138 | CTAATTGC | 0.0265 ± 0.0087
139 | CAGCGCCC | -0.0103 ± 0.094
140 | GTCGGCAA | -0.0341 ± 0.011
141 | CCTGTTGC | 0.143 ± 0.039
142 | GGGTCTCA | 0.05 ± 0.034
143 | AGCTGCAA | 0.0727 ± 0.0037
144 | ACCGACTA | -0.0378 ± 0.056
145 | GACCCCGA | -0.192 ± 0.054
146 | GGGTGGAC | -0.178 ± 0.027
147 | CGATTTGA | 0.0366 ± 0.12
148 | GAACTCCC | -0.13 ± 0.012
149 | ACTTTATC | 0.0678 ± 0.072
150 | GGGCCTCA | -0.165 ± 0.0037

Row | Sequence | PBM E-score of 8-mer
151 | GGAGCTTA | -0.18 ± 0.11
152 | CGGTATAA | -0.0515 ± 0.011
153 | AGGCCTAC | -0.238 ± 0.088
154 | ATATCCTG | -0.361 ± 0.025
155 | CGGTTAAC | 0.0802 ± 0.035
156 | AACAGATT | 0.099 ± 0.11
157 | AAGCCGTG | -0.00484 ± 0.044
158 | CGGGTTTC | -0.071 ± 0.015
159 | CATCGTTA | 0.00456 ± 0.056
160 | GACCTCAC | 0.0743 ± 0.032
161 | CATTGTGG | -0.0877 ± 0.11
162 | ATTCATTA | 0.0337 ± 0.032
163 | TCCCAGCA | 0.0248 ± 0.11
164 | AAAACGCC | 0.0828 ± 0.035
165 | GAGGGCCA | -0.302 ± 0.031
166 | CTGTTGCA | 0.075 ± 0.12
167 | AGACTGGC | -0.0734 ± 0.036
168 | ACCTCTTC | 0.0295 ± 0.076
169 | GCTATCTA | -0.0532 ± 0.092
170 | GGCTTACC | -0.139 ± 0.096
171 | AAAACACT | 0.241 ± 0.029
172 | CTTCACTC | 0.0135 ± 0.0079

From the supplement of paper PMC4166925
